Whole data set: some 33,000 sequences, median “E-score (-0.5 to 0.5)” near -0.04, cut for the highest 2% near 0.36. The list shows a part of the results.
The sequences below were run against T1, Hmlalpha2 (UniProt P0CY09) (assay: PBM E-score (8-mer binding enrichment) (E-score (-0.5 to 0.5)); higher = stronger / more preferred TF binding; most listed sequences are background and not binding sites). Conditions: protein concentration: 200 nM; construct: GST-full length.
T1 sequence: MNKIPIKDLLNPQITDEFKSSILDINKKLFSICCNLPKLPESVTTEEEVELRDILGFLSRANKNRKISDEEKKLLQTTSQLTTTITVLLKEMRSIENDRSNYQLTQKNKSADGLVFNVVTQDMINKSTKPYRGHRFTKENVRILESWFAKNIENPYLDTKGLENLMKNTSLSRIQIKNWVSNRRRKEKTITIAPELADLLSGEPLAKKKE
Outline: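 E-scores (a modified Wilcoxon-Mann-Whitney statistic) were assigned by the Universal PBM Analysis Suite to every ungapped eight-base word pooled with its reverse complement. The input came from universal all-10-mer Agilent arrays made double-stranded by primer extension and probed with GST-tagged yeast transcription factors at about 100-200 nM. Fluorescent anti-GST detected bound protein, and masliner normalised the scans.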

Sequence	PBM E-score
ACATACTC	0.216
AGGTCGCA	-0.183
GTTTCAAA	0.079
AGGAGGGA	-0.264
CATCGTGG	-0.287
TGCAGTAA	0.0433
ACCGTGGG	-0.277
ACTAGGCA	-0.0725
GTCCGGAA	-0.0754
CACGCACG	0.196
ACAGAGAT	0.195
ATTGGGTG	-0.0614
ATTTTGCC	-0.0288
ATATTGCG	-0.0116
GTCCTCGA	-0.104
ACAGAGCA	0.105
ACTCATTA	0.183
AATATCTC	-0.119
CAACGCGC	0.335
AGCAACAA	0.199
ACGGTGAT	-0.00363
TAATCCCA	0.164
ATCCGTCG	-0.0869
GATTGGAC	-0.158
ATTTGATC	-0.212

Sequence	PBM E-score
CGCCTCAG	-0.256
AATACCCC	-0.348
ATGGAATA	0.115
AAAACCAG	0.0428
CCTATCTA	-0.113
CCTAGAAC	-0.037
ACAACGCA	0.261
CCACTAAA	-0.132
AGTTGGAG	-0.196
GAACTGAC	-0.00291
CTGGTCTC	-0.316
GCAACCAC	-0.0661
ACGTTGCC	-0.0821
ACCCATTG	-0.123
ACTGTGCT	0.0299
CGGTGAGA	-0.0556
AGACCCGG	-0.18
ACCCGAGA	-0.255
CAATACAC	0.431
CACTGGCG	0.0622
GGGCCTAC	-0.191
ATGTCCCG	-0.275
GCACCACC	-0.282
CCTACAAA	0.0287
GCCGTAGC	-0.102

Sequence	PBM E-score
CGTCAGAG	0.0339
AAACGCTA	-0.017
GACGACAA	0.104
GTGTTACA	0.354
AGGCGATA	-0.203
AGCCGCCA	-0.246
TCACGGAA	-0.0341
AAGCATCC	-0.3
CGGGCTCA	-0.254
CTATTAAG	-0.156
CGGAGACC	-0.101
CTGACAGA	-0.1
AACCACAC	0.165
TATCAATA	0.115
AGTAAAAT	0.16
ATTGGAAA	-0.094
GCCTAACA	0.127
GTACCTTA	0.106
CAATGCAA	0.123
ATGATACC	0.0611
AACGCTGC	0.029
AAGTGAAC	0.00784
AGGGAGAT	-0.303
CAAATGTG	0.26
ACAAAAGC	0.139

Sequence	PBM E-score
GTGCTCCA	-0.114
GCACACAA	0.155
AAGTGTCA	-0.117
GCTCGTAA	0.198
ACTCGGCA	-0.0129
GCCACTAA	-0.24
AATCCAAG	-0.128
TACCTATA	-0.0141
TCCGGACA	-0.165
AAGTAAAA	0.121
CGCCGCCA	-0.183
CCGTACCC	-0.203
AAAACCTA	0.156
GTTTAATA	0.218
ACTGACTA	0.0439
AAGCCGAA	0.00646
ACCTCTAT	-0.118
GATCGCGA	-0.102
TACGGAGA	0.0295
CTGTACAA	0.288
TGACGAAA	0.116
CCGGTAAG	-0.0586
TAACGCGA	0.353
GCGCTCTA	-0.169
GGTTTCGA	-0.204

Sequence	PBM E-score
ATGGGGAG	-0.141
TATCTAAA	0.141
AGATTGTA	0.159
AAAAAGCC	-0.0506
GCCACAGC	-0.0844
TACACGGA	0.447
ATCTGTAG	-0.0319
AACTCAAA	0.202
AAGCGACG	-0.112
CAGGGCAC	-0.126
GCAGTACC	0.0301
AGTAATAG	0.248
CTCGACTA	-0.0679
CGATGGCC	-0.21
AGGGGCCA	-0.278
CGTAAGCC	-0.0631
GTAGGTGA	0.116
TCAGATGA	0.00478
CCCACTAG	-0.3
GTGAGCTA	0.121
AAAACGTC	0.148
CACATCGC	-0.0469
AGGCCCGC	-0.162
AAAGCCAC	-0.129
TATGTACA	0.429

Sequence	PBM E-score
GATAGTAA	0.0606
GTCAAAAC	0.173
ACTGCCTC	-0.0994
CAAGACCG	-0.0879
CTCTGAAG	-0.259
CATGAGAC	0.0704
ATCATCCA	-0.233
AACCGTCT	-0.164
TGGCCTAA	-0.0483
TGCATCAA	0.0377
GGCGCATA	-0.0781
ATATAAAG	-0.0907
TGACTGCA	-0.12
CTGGAGAC	-0.191
AAAAATTG	0.0425
AAAGGACG	0.052
TGGCATAA	0.158
CGACATAG	0.139
CGTACGCA	0.106
TCCTGCAA	-0.15
GGGGCGAC	-0.221
AACCATTC	-0.123
ACATCGCC	0.0613
CGTTCTTA	0.148
CAATGCCA	-0.0809

Sequence	PBM E-score
AGTTTTAT	0.163
CCGAAGTA	0.0976
CGCCATAC	-0.036
TAGAAGAA	0.00123
AATCAACT	0.232
CAAATAAC	0.279
ATCGCAGC	-0.13
GCTGTAAA	0.336
AAACGGGG	-0.0854
ATACACAA	0.42
AGGCTCCG	-0.228
CCGGCAGC	-0.36
CTACGCAG	0.228
CGTCTGGC	-0.0586
AGGTACAG	-0.014
AAGAACTA	0.142
AGTGGCTC	-0.191
CATCTGTA	0.0908
CACCAACA	0.0464
GATATTGA	-0.135
TCGAGTCA	-0.0925
TAGAAACA	0.205

Reference: the supplement of paper PMC3334620
